Data from PubChem BioAssay AID1645882 (National Center for Advancing Translational Sciences (NCATS), 2021).
In all, about 16,000 compounds went through this assay and about 120 (0.75%) were called active. Roughly 4% stayed inconclusive and do not appear here. The call rests on the fitted dose curve; in most records, active means well fitted inhibition curve with a large enough effect; inconclusive means small, poorly fitted or top-dose-only effect; inactive means no such curve, though single readings can be large or run the other way. This is one part of the list.

Molecular target: Rap guanine nucleotide exchange factor 3 (Homo sapiens) (UniProt O95398)
Sequence of UniProt O95398 (O95398 whole entry, looked up): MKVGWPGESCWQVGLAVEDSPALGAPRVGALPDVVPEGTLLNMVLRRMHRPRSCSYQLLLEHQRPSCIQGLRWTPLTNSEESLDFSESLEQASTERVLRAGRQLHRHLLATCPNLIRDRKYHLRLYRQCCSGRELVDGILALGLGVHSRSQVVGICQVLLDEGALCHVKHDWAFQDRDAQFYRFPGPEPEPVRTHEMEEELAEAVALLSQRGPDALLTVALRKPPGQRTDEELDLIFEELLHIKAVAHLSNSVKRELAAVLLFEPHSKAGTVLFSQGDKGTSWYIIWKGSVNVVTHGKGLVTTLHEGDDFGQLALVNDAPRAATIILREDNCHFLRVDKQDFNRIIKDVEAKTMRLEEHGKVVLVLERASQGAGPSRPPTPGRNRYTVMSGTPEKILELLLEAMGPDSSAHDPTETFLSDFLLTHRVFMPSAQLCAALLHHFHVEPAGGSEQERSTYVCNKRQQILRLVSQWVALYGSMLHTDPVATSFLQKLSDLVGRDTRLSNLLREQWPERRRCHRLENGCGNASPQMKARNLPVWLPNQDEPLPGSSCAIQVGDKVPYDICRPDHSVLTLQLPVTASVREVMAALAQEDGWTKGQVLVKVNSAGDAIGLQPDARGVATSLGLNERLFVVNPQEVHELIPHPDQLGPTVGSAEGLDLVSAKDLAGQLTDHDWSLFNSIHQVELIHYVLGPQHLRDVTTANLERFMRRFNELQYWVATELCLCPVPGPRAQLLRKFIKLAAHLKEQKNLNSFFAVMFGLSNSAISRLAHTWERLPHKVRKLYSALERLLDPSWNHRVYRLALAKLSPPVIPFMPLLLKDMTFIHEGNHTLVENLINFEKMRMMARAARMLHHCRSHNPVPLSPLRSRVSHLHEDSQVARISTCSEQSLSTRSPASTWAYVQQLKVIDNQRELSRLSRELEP
Assay: Validation qHTS for antagonist of cAMP-regulated guanine nucleotide exchange factor 3 (EPAC1);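 further: plate controls were DMSO for no effect and ATA control for full effect; nearly all actives have a fitted effect of over 75% in size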
Details: EPAC1 Rap1B-BODIPY-GDP exchange, fluorescence; series mostly up to 150 µM; activity change, negative = inhibition: at the top concentration
Summary of the method: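 Nucleotide exchange followed as fluorescence loss when BODIPY-GDP leaves Rap1B (480 nm excitation, 540 nm emission), read at 5 min intervals over 30 min. Reaction: 100 nM EPAC1, 250 nM RAP1B-BODIPY-GDP, 50 uM GDP; ATA and DMSO define normalization.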

SMILES	activity change, negative = inhibition
CN(C)Cc1ccccc1-c1cc(Nc2ccccc2)ncn1	inactive: 20%
O=C(NCc1nnc2n1CCN(Cc1cc(F)cc(F)c1)CC2)c1cccc(F)c1	inactive: -7.52%
OCCCc1ccccc1	inactive: -12.9%
CO/N=C(/C(=O)N[C@@H]1C(=O)N2C(C(=O)OCOC(=O)C(C)(C)C)=C(C)CS[C@H]12)c1csc(N)n1	inactive: 9.71%
Cc1noc(C)c1-c1cc(NCc2cccnc2)ncn1	inactive: 1.14%
COc1nc(C)nc(Cl)c1NC1=NCCN1	inactive
CCn1cc(C(=O)O)c(=O)c2cnc(N3CCNCC3)nc21	inactive
CCc1nc(CN2CCOc3ccc(C(O)C4CCCCC4)cc3C2)c(C)[nH]1 (centres undefined)	inactive: -2.1%
CCCCS(=O)(=O)N[C@@H](Cc1ccc(OCCCCC2CCNCC2)cc1)C(=O)O	inactive: 12.2%
NCCS(=O)(=O)O	inactive
CCN1CCCC1CNCc1cc2c(OC)c(OC)c(OC)cc2nc1N(C)C (centres undefined)	inactive: 6.43%
C[C@@](N)(Cc1ccc(O)cc1)C(=O)O	inactive: 20.3%
N#CC(C#N)=C(N)/C(C#N)=C/c1ccc(O)cc1	inactive: 6.09% [at 75.8 µM]
COc1cccc(Nc2ncc3nc(C)c(=O)n(C)c3n2)c1	inactive: -0.608%
CN[C@@H]1[C@H](O[C@H]2[C@H](O[C@H]3[C@H](O)[C@@H](O)[C@H](N=C(N)N)[C@@H](O)[C@@H]3N=C(N)N)O[C@@H](C)[C@]2(O)C=O)O[C@@H](CO)[C@H](O)[C@H]1O	inactive: 2.03%
Cc1cccc(C(=O)O)c1O	inactive: -10.6%
COCC(=O)N1CCC[C@@]2(CCN(c3ccncc3)C2)C1	inactive: 2.52%
Cn1cc(C(=O)[C@@H]2CCc3nc[nH]c3C2)c2ccccc21	inactive: -6.92%
Nc1nc(Cl)nc2c1ncn2[C@H]1C[C@H](O)[C@@H](CO)O1	inactive
COCCn1c(=O)c(CCc2ccccc2)nc2cnc(N(C)C)nc21	inactive: 4.26%
COc1cccc(-n2c(SC)nnc2C2CCN(Cc3nc4ccccc4s3)CC2)c1	inactive: -3.44%
CNC(C)[C@@H]1CC[C@@H](N)[C@@H](O[C@H]2[C@H](O)[C@@H](O[C@H]3OC[C@](C)(O)[C@H](NC)[C@H]3O)[C@H](N)C[C@@H]2N)O1 (some centres undefined)	inactive: 16.4% [at 75.8 µM]

SMILES	activity change, negative = inhibition
Oc1cccc(-c2c3nc(c(-c4cccc(O)c4)c4ccc([nH]4)c(-c4cccc(O)c4)c4nc(c(-c5cccc(O)c5)c5ccc2[nH]5)CC4)C=C3)c1	inactive
C=C1CCC[C@]2(C)C[C@H]3OC(=O)[C@H](CNCCc4ccccc4OC)C3CC12 (some centres undefined)	inactive: -5.64%
COc1cccc(CN2CCC3(CC2)c2ccccc2[C@@H](NC(=O)c2ccccc2OC)[C@@H]3O)c1	inactive: 6.61%
CC(=O)Oc1ccc(C)cc1	inactive: 1.32%
COc1ccc(CN2C[C@H](Sc3nc4ccccc4[nH]3)C[C@H]2C(=O)N2CCCN(C)CC2)cc1C	inactive: 6.86%
CC1(C)CO[C@@H](CC(=O)O)CN1	inactive: 17.2%
COc1cc(-c2noc(C)c2C#CCCN2C(=O)c3ccccc3C2=O)cc(OC)c1OC	inactive: 8.84%
O=C1CCN(CCc2ccccc2)CCN1[C@H](COc1ccccc1)c1ccccc1	inactive: -3.33%
COc1cccc2c1[C@@H]1CN(CCCCn3c(=O)[nH]c4c(sc5ncc(-c6ccccc6)nc54)c3=O)C[C@@H]1CO2	inactive: -11.2% [at 75.8 µM]
COc1ccc(C(=O)N2CCC[C@@]3(CCN(c4ccccn4)C3)C2)cc1	inactive: 16.8%
CCCCCCCCCCCCCCCC(=O)OC[C@@H](O)[C@H]1OC[C@H](O)[C@H]1O	inactive: 24.8%
NCCNC(=O)c1ccc(Cl)cn1	inactive: -4.67%
O=C(c1ccc2c(c1)OCO2)N1CCOc2ccc(CN3CCC(Oc4cccnc4)CC3)cc2C1	inactive: 8.84%
O=C(/C=C/c1ccc(O)c(O)c1)O[C@H]1C[C@@](O)(C(=O)O)CC(O)C1O (some centres undefined)	inactive: 7.75%
FC(F)(F)C(F)(F)C(F)(F)C(F)(F)C(F)(F)C(F)(F)F	inactive: 16.5%
CC(C)C(NS(C)(=O)=O)c1nnc2n1CCN(Cc1cccc3ncccc13)CC2 (centres undefined)	inactive: 9.89%
CC(C)NC(=O)N1CCC2(CC1)CCN(C(=O)c1ccco1)CC2	inactive: 33%
O=C(c1cc(C(F)(F)F)cc(C(F)(F)F)c1)N1CCC2(CC1)CN(c1ccccn1)C2	inactive: -14.1%
COc1cccc2c1C(=O)c1c(O)c3c(c(O)c1C2=O)C[C@@](O)(C(=O)CO)C[C@@H]3O[C@H]1C[C@H](N)[C@H](O)[C@H](C)O1	inactive
Cc1ncc2c(c1CNC(=O)CN1CCCC1)CCN(C(=O)c1ccc(F)cc1F)C2	inactive: 13.5%
Cn1cnc2c(NCc3ccccc3)nc(NCCO)nc21	inactive
O=C(/C=C/c1ccccc1)c1ccc(O[C@H]2OC(CO)C(O)C(O)C2O)cc1O (some centres undefined)	inactive: 21.3%

SMILES	activity change, negative = inhibition
CC(=O)N1CCC[C@@]2(CCN(c3ccncc3)C2)C1	inactive: 2.93%
CC(C)NC(=O)N1CC[C@@]2(CCCN(S(C)(=O)=O)C2)C1	inactive: 15%
CC1(C)S[C@@H]2[C@H](NC(=O)[C@H](N)c3ccc(O)cc3)C(=O)N2[C@H]1C(=O)O	inactive: -6.8%
CCOC(=O)C1=C[C@@]2(CC)CCCN3CCc4c(n1c1ccccc41)C32 (some centres undefined)	inactive: 1.81%
O=C(NCCc1ccccn1)C1CC12CCN(C(=O)c1ccccc1Cl)CC2 (centres undefined)	inactive: 26%
Cc1cnc(CNc2ccnc(-c3ccoc3)n2)cn1	inactive: 4.3%
CCc1cc(S(=O)(=O)O)c2cc(C(C)C)cccc1-2	inactive: 4.24%
COc1cc(-c2oc3cc(O)ccc3c(=O)c2O)ccc1O	inactive: -13.2%
OCCOCCN1CCN(C2=Nc3ccccc3Sc3ccccc32)CC1	inactive
CCNc1ncc2nc(C)c(=O)n(Cc3ccc(F)cc3)c2n1	inactive: -7.06%
Cc1cc(O)c(C)c(O)c1C(=O)O	inactive: 8.73%
CC[C@@H]1[C@H]2CCCC(=O)N3CC[C@@H](C[C@@H]1Nc1ccccc1)[C@@H]23	inactive: 16.8%
N=C(N)c1ccc(OCCCCCOc2ccc(C(=N)N)cc2)cc1	inactive
COc1ccc(C(=O)N2CCC3(CCN(C(=O)Nc4ccccc4)CC3)CC2)cc1	inactive: 7.67%
COc1cccc(CN2CCCC(c3nc(C)ncc3-c3ccc(F)cc3)C2)c1OC (centres undefined)	inactive: 1.33%
c1ccc(CNc2ncncc2-c2cccnc2)cc1	inactive: 21.7%
COC(=O)Nc1nc2ccc(C(=O)c3ccccc3)cc2[nH]1	inactive
COc1cccc(-c2cncnc2NCc2cccc(C)c2)c1	inactive: -10.7%
NC(=O)C1c2ccccc2CCc2ccccc21	inactive: 1.19%
Cn1c(NCCN(CCO)CCCc2ccc([N+](=O)[O-])cc2)cc(=O)n(C)c1=O	inactive: 13.4%
